{"source": "paper PMC4336329", "about": "(PLoS ONE, 2015)", "note": "Screen size: about 310,000 compounds; about 2,200 (0.71%) showed an effect of 50% or more. Effects have a minus sign here. This is one part of the list."}
{"target": "human ether-à-go-go-related gene (hERG) potassium channel (human, UniProt Q12809)", "sequence (Q12809 whole entry, looked up)": "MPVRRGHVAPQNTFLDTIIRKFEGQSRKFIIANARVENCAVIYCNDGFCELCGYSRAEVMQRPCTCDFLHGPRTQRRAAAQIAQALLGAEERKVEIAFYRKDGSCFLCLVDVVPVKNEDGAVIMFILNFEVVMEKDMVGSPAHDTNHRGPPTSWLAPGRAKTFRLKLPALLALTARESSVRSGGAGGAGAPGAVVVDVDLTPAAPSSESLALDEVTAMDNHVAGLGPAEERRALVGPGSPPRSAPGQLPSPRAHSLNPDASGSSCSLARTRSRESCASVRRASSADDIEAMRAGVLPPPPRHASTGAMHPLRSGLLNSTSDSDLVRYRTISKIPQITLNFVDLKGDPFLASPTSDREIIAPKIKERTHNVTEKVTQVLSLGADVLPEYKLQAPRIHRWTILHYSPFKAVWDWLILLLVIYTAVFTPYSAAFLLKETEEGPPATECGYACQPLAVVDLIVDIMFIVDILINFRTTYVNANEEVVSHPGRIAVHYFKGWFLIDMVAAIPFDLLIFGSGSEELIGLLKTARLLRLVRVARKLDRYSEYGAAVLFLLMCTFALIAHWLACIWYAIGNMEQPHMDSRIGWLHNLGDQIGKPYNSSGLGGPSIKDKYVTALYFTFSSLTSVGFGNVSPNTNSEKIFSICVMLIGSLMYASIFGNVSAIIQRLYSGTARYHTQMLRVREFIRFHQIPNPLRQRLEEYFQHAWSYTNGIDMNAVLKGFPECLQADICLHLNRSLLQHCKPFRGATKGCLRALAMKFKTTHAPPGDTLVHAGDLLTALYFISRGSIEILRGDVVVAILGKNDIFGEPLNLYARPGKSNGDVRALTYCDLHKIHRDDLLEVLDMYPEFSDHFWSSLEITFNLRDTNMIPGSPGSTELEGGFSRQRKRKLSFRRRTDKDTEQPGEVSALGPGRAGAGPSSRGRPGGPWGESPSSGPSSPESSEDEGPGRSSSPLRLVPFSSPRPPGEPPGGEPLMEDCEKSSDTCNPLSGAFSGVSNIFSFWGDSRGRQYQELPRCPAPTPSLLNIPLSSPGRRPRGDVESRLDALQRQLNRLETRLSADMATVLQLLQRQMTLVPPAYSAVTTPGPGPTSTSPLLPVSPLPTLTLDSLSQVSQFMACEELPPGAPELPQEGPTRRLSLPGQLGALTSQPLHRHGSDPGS", "test": "primary screen, population patch clamp on CHO cells stably expressing hERG", "units": {"hERG current change (%, negative = inhibition) at 1uM": "%"}}
{"molecule": "Cc1c(C(=O)c2cccc(F)c2)c2ccccn2c1CCC#N", "hERG current change (%, negative = inhibition) at 1uM": 4.8}
{"molecule": "CCCCCCc1ccc(N2C[C@H](CCCCC)[C@@H](CC(=O)NCc3ccc(OC)cc3)C2=O)cc1", "hERG current change (%, negative = inhibition) at 1uM": -14.4}
{"molecule": "O=C(COC(=O)[C@H](Cc1ccccc1)NC(=O)c1cccs1)Nc1c(Cl)cccc1Cl", "hERG current change (%, negative = inhibition) at 1uM": -8.27}
{"molecule": "COc1ccc([C@H]2CC(=O)C=C(c3ccc(C(=O)O)cc3)C2)cc1OC", "hERG current change (%, negative = inhibition) at 1uM": 8.57}
{"molecule": "CCCn1c(SCC(=O)c2c(N)n(C3CC3)c(=O)[nH]c2=O)nnc1-c1ccncc1", "hERG current change (%, negative = inhibition) at 1uM": 9.61}
{"molecule": "Cc1ccc(S(=O)(=O)Nc2ccccc2)cc1C(=O)N1CCCC1", "hERG current change (%, negative = inhibition) at 1uM": 7.76}
{"molecule": "Cc1ccccc1C(=O)Nc1cccc(-c2nnc(SCC(=O)O)n2C)c1", "hERG current change (%, negative = inhibition) at 1uM": 17.4}
{"molecule": "COCC(C)n1c(SCc2nc(N)nc(Nc3ccccc3C)n2)nc2ccccc2c1=O", "note": "(centres unmarked)", "hERG current change (%, negative = inhibition) at 1uM": 13.5}
{"molecule": "Cc1ccc(C(=O)Nc2ccc(S(=O)(=O)N3CCN(C)CC3)cc2)cc1", "hERG current change (%, negative = inhibition) at 1uM": -2.89}
{"molecule": "N=c1c(C(=O)NCCc2ccccc2)cc2c(=O)n3ccccc3nc2n1CC1CCCO1", "note": "(centres unmarked)", "hERG current change (%, negative = inhibition) at 1uM": -93.8}
{"molecule": "COc1ccccc1NC(=O)Cn1c(=O)n(C)c(=O)c2sc3c(c21)COC(C)(C)C3", "hERG current change (%, negative = inhibition) at 1uM": 4.47}
{"molecule": "O=C(COc1ccccc1)c1cn(Cc2ccccc2)c2ccccc12", "hERG current change (%, negative = inhibition) at 1uM": 8.91}
{"molecule": "Cc1ccc(C(=O)c2oc3ccccc3c2NC(=O)c2cc(-c3cc(C)ccc3O)n[nH]2)cc1", "hERG current change (%, negative = inhibition) at 1uM": 17.2}
{"molecule": "C=CCN1C=C2C(=O)C(C)(OC(=O)CCc3ccccc3)C(=O)C=C2C=C1c1ccc(C#N)cc1", "note": "(centres unmarked)", "hERG current change (%, negative = inhibition) at 1uM": 4}
{"molecule": "COc1ccc(C/C(=N\\OC(C)=O)c2ccc(OC)cc2)cc1", "hERG current change (%, negative = inhibition) at 1uM": 7.22}
{"molecule": "CCOc1ccc(CC(=NCCO)C2=C(O)CC(C)(C)CC2=O)cc1OCC", "hERG current change (%, negative = inhibition) at 1uM": 5.81}
{"molecule": "CCN(CC)C(=O)c1ccc(C)c(Br)c1", "hERG current change (%, negative = inhibition) at 1uM": 9.24}
{"molecule": "O=c1[nH]c(=O)n(-c2ccc(F)cc2)c(O)c1/C=C1\\C=Nc2ccccc21", "hERG current change (%, negative = inhibition) at 1uM": 7.47}
{"molecule": "CC1CN(CCCCOc2ccc3ccccc3c2)CC(C)O1", "note": "(centres unmarked)", "hERG current change (%, negative = inhibition) at 1uM": 3.17}
{"molecule": "COc1ccc(CNCCc2ccc(Cl)cc2)c(OC)c1OC.O=C(O)C(=O)O", "hERG current change (%, negative = inhibition) at 1uM": -12.1}
{"molecule": "CC1CN(CN2C(=O)c3ccccc3C2=O)CC(C)O1", "note": "(centres unmarked)", "hERG current change (%, negative = inhibition) at 1uM": -5.09}
{"molecule": "N#CCCn1cc(C(=O)Nc2ccc([N+](=O)[O-])cc2)c(-c2cc3ccccc3o2)n1", "hERG current change (%, negative = inhibition) at 1uM": 17.8}
{"molecule": "CCOC(=O)c1c(C)[nH]c(C(=O)OCC(=O)c2ccc3c(c2)NC(=O)CO3)c1C", "hERG current change (%, negative = inhibition) at 1uM": 8.92}
